According to publication PMC4336329 (PLoS ONE, 2015):
The campaign covered roughly 310,000 compounds. About 2,200 (0.71%) showed an effect of 50% or more. The effect is printed as a negative number. This is one part of the list.

target: human ether-à-go-go-related gene (hERG) potassium channel (human, UniProt Q12809); assay: primary screen, population patch clamp on CHO cells stably expressing hERG
Sequence (Q12809 whole entry, looked up): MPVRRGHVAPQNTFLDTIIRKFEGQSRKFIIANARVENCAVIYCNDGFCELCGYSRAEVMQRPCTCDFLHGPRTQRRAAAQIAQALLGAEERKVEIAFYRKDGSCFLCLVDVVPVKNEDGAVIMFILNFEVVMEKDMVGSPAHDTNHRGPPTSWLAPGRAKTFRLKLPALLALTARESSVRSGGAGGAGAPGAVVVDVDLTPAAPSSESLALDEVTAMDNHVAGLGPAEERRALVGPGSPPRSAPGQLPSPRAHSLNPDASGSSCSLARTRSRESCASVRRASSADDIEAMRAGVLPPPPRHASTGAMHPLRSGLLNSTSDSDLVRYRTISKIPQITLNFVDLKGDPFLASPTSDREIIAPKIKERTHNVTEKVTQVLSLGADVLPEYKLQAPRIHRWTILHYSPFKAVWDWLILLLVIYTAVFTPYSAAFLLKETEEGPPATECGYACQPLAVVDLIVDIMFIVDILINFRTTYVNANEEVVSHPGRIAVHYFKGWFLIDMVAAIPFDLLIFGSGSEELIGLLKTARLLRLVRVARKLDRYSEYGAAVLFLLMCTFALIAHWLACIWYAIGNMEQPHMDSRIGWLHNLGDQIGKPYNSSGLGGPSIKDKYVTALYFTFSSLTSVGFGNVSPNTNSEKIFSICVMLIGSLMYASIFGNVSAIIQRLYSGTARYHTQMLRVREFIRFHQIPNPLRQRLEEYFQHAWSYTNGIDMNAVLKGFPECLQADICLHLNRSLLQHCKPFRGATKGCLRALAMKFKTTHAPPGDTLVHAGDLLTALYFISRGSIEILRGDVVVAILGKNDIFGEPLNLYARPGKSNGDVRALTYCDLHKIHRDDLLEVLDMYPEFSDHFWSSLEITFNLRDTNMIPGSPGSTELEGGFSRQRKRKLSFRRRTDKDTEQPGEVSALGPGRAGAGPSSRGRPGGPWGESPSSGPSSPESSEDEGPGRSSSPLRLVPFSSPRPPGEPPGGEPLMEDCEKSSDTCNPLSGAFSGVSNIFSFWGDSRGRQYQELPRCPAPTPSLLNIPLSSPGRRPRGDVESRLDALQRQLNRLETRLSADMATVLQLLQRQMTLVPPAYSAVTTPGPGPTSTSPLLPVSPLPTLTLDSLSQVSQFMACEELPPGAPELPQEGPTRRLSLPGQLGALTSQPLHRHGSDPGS

| SMILES | hERG current change (%, negative = inhibition) at 1uM [%] |
| --- | --- |
| Nc1ccccc1-c1nnn(CC(=O)Nc2ccc3c(c2)OCCO3)n1 | 14.9 |
| CC(=O)N/C(=C\c1ccccc1)C(=O)OC(C)C(=O)NCc1ccccc1 (centres unmarked) | 7.67 |
| Oc1ccc(-c2cnc3ccccc3n2)cc1 | 8.78 |
| Cc1ccc(OCCOc2cccc(Br)c2)c([N+](=O)[O-])n1 | 11.2 |
| COc1ccc(OC)c(NC(=O)c2ccc(S(=O)(=O)N3CCOCC3)cc2)c1 | 14.8 |
| COc1ccc2c(CC(=O)N[C@@H](Cc3ccccc3)C(=O)O)cc(=O)oc2c1C | 4.26 |
| CCOc1ccccc1C(c1c(O)nc(SC)[nH]c1=O)c1c(O)nc(SC)[nH]c1=O | 3.85 |
| COC(=O)c1cccc(NC(=O)CC2C(=O)NCCN2C(=O)Nc2cc(C)cc(C)c2)c1 (centres unmarked) | 11.5 |
| Cc1noc(C)c1S(=O)(=O)N1CCCC(C(=O)N2CCc3ccccc3C2)C1 (centres unmarked) | -5.05 |
| Nc1nonc1-c1noc(-c2ccc(Br)o2)n1 | 0.272 |
| Cc1ccccc1NC(=O)Cc1nc(COC(=O)c2cccnc2Cl)cs1 | 11.6 |
| Oc1cccc(/C=N/NC(=S)Nc2cccnc2)c1O | 8.14 |
| COC1CCCN(C(=O)c2ccc3oc(Cc4ccc(Cl)cc4)nc3c2)C1 (centres unmarked) | 7.73 |
| CCC(=O)N1CCN(c2ccccc2NC(=S)NC(=O)c2ccco2)CC1 | 6.26 |
| N/C(=N\OC(=O)c1ccc(Cl)cc1)c1ccc(Cl)cc1 | 9.91 |
| O=C(NCC1CCCO1)c1cc2cc(F)ccc2[nH]1 (centres unmarked) | 14.1 |
| O=C(COC(=O)c1cnccn1)c1cccc([N+](=O)[O-])c1 | 13.8 |
| O=C1C(Cc2ccccc2)NC(=S)N1c1ccccc1 (centres unmarked) | 15 |
| CCCCOc1ccc(N2CC(C(=O)NCc3ccco3)CC2=O)cc1 (centres unmarked) | 6.47 |
| Cc1cccc(NC(=O)CSc2nnnn2-c2ccc3c(c2)OCCO3)n1 | -17.7 |
| Cc1ccccc1OCCC(=O)Nc1ccc(N2CCOCC2)cc1N1CCOCC1 | 2.71 |
| COc1nc(C)ccc1-c1noc(-c2ccccn2)n1 | 8.18 |
| Cc1ccc(C2=NN(C(=O)c3ccccc3F)C(c3ccccc3F)C2)cc1 (centres unmarked) | 14.3 |

| SMILES | hERG current change (%, negative = inhibition) at 1uM [%] |
| --- | --- |
| Cc1[nH]c2ccccc2c1C(=O)CSc1ccccc1 | -2.05 |
| CCCCN(C(=O)c1ccco1)C1CCS(=O)(=O)C1 (centres unmarked) | 2.3 |
| CCc1ccc(NC2=CC(=O)CC(C)(C)C2)cc1 | 17 |
| COC(=O)c1cc(NC(=O)C(C)c2ccc(CC(C)C)cc2)ccc1O (centres unmarked) | 7.88 |
| O=C(NCc1ccco1)c1nc2ncccn2n1 | 6.52 |
| Cc1ccc(NC(=O)CCNC(=O)c2ccco2)cc1Cl | 14.8 |
| CC(C)(C)NC(=O)CSc1nc2ccc(NC(=O)CSc3nnc(N)s3)cc2s1 | 10 |
| CN1CCCC(OC(=O)c2ccccc2F)C1.Cl (centres unmarked) | 7.78 |
| CC(C)Oc1ccc(S(=O)(=O)N2CCOCC2)cc1NC(=O)CN1C(=O)NC2(CCCC2)C1=O | 2.5 |
| CCOc1ccc(N2C(=O)c3cccnc3C2Nc2ccc(C)cc2)cc1 (centres unmarked) | 10 |
| COCc1nnc(NS(=O)(=O)c2c(C)cc(C)cc2C)s1 | 2.52 |
| Cc1cc(C)c(NC(=O)Cn2c([N+](=O)[O-])cnc2C)c(C)c1 | 11.1 |
| CC(=O)Nc1ccc(S(=O)(=O)n2cnc3ccccc32)cc1 | 8.45 |
| O=C(C1=C[C@@H](c2ccc(C(F)(F)F)cc2)C[C@@H](OCCCCO)O1)N1CCN(Cc2ccc3c(c2)OCO3)CC1 | -10 |
| CC(=O)Nc1ccc(S(=O)(=O)Nc2nnc(CC(C)(C)C)s2)cc1 | 16.2 |
| CC1=CC(C)(C)N2C(=O)C(=O)c3cc(OC(=O)c4ccco4)cc1c32 | 16.1 |
| Cc1ccc(-n2nnc(-c3nccn3C)n2)cc1 | 6.56 |
| COc1ccc(C(c2ccc(OC)cc2)C(Cl)(Cl)Cl)cc1 | 13.6 |
| O=c1c2ccccc2nc(-c2ccco2)n1-c1ccncc1 | 2.71 |
| Cc1cc(C)cc(NC(=O)CSCc2cc(=O)n3ccsc3n2)c1 | 11.2 |
| COc1cc(C(=O)OC(C)C(=O)NC2CCCCC2C)c([N+](=O)[O-])cc1OC (centres unmarked) | -3.59 |
| O=S(=O)(c1ccc(Cl)cc1)n1nnc2ccccc21 | 4.78 |
| Nc1cc(S(=O)(=O)N2CCCCC2)ccc1N1CCCCC1 | 3.61 |

| SMILES | hERG current change (%, negative = inhibition) at 1uM [%] |
| --- | --- |
| O=C(NCC1CCCCC1)c1ccc([N+](=O)[O-])cc1 | 8.06 |
| CCCCc1cc(=O)oc2cc(OCC(=O)NCC3CCC(C(=O)O)CC3)ccc12 (centres unmarked) | 15.7 |
| COc1cccc2cc(C(=O)C3=C(O)C(=O)N(CCN4CCOCC4)C3c3ccc(C(C)(C)C)cc3)oc12 (centres unmarked) | 35 |
| O=C1CSC(c2cccnc2)N1CCc1ccccn1 (centres unmarked) | 17.6 |
| Cc1ccc(Nc2nc3ccccc3n3cnnc23)cc1C | 11.4 |
| O=C(NC1CCCCC1)C1CCC(CNS(=O)(=O)c2ccccc2)CC1 (centres unmarked) | 16.5 |
| Cc1ccc(NC(=O)NC2CCCCC2)cc1S(=O)(=O)N1CCOCC1 | 9.67 |
| Cc1ccc(C(C)C)c(OCCCN2C(=O)NC(C)(C)C2=O)c1 | -2.93 |
| CCn1c(SCC(=O)N2CCC(C)CC2)nnc1-c1ccco1 | 13.1 |
| CCCCn1c(=O)cc(N2CCOCC2)[nH]c1=O | 8.58 |
| Cc1ccc(NC(=O)C2OCCc3ccccc32)cc1Cl (centres unmarked) | 19.5 |
| Cc1cccc(OCC(=O)N(Cc2ccccc2)c2c(N)n(Cc3ccccc3)c(=O)[nH]c2=O)c1 | 6.53 |
| N#Cc1ccc(C(=O)OCC(=O)Nc2cccnc2Cl)cc1 | 1.17 |
| CCOC(=O)c1sc(NC(=O)c2ccc(OC)cc2)nc1C | 15.9 |
| O=C(CSc1nnc(Cc2ccccc2)o1)Nc1ccc(Br)cn1 | 15.7 |
| COc1cc2[nH]c(=S)n(CCCN3CCOCC3)c(=O)c2cc1OC | 7.58 |
| O=C(NCC(=O)N(CC1CCCO1)C(C(=O)NC1CCCCC1)c1ccccc1)c1cccs1 (centres unmarked) | 7.63 |
| Cc1ccccc1C(=O)Nc1ccnn1C1CCN(CC2CC=CCC2)CC1 (centres unmarked) | -33.5 |
| O=C(NC1CCCC1)C1CCC(=O)N1C1CCCCC1 (centres unmarked) | -8.1 |
| CCN(CC)C(=O)CSc1ncnc2sc(-c3ccccc3)cc12 | 2.6 |
| CCCn1c(=O)n(C)c(=O)c2c(SCC(=O)NCc3ccco3)nc(C3CC3)nc21 | 12.1 |
| O=C(CSc1ccc(Cl)cc1)Nc1ccc(N2CCN(c3ccccc3)CC2)c(F)c1 | 11.7 |
| CC(=O)OC1C(N2CCCCC2)c2c(ccc(/C=C/C(=O)N3CCCCC3)c2O)OC1(C)C (centres unmarked) | 8.42 |

| SMILES | hERG current change (%, negative = inhibition) at 1uM [%] |
| --- | --- |
| Cc1ccc(C)c(NC(=O)Cn2c([N+](=O)[O-])cnc2C)c1 | 19.9 |
| CCOC(=O)NC(=O)CSc1nc2ccc(OCC)cc2[nH]1 | 10.4 |
| O=C(NCCN1CCCC1)C1CCN(S(=O)(=O)N2CCC3(CC2)OCCO3)CC1 | 19.1 |
| C/C(=N\Nc1cccc(C(=O)O)c1)c1ccc2c(c1)Nc1ccccc1S2 | 6.55 |
| O=C(CN1C(=O)C2CCCCC2C1=O)OCC(=O)c1ccc(F)cc1 (centres unmarked) | 13.9 |
| COCC(=O)Nc1cccc(-c2ccc3nncn3n2)c1 | 15.1 |
| Cc1nn(-c2ccc(Cl)cc2)c(=O)c2c(C)noc12 | 11.3 |
| CCC(C)(C)NC(=O)C1CCC(CNS(=O)(=O)c2cccc3nsnc23)CC1 (centres unmarked) | 7.14 |
| Cc1ccc(N2C(=O)NC(=O)/C(=C\C=C\c3ccco3)C2=O)cc1 | 19.4 |
| O=C(CS(=O)(=O)Cc1ccccc1)Nc1nnc(C(F)(F)F)s1 | 16.8 |
| CC1CN(C)C(C)c2c1oc1ccc(N)cc21.O=C(O)/C=C/C(=O)O (centres unmarked) | -6.95 |
| CC(NC(=O)C12CC3CC(CC(C3)C1)C2)C(=O)N/N=C/C1=C(N2CCOCC2)C(=C\c2ccccc2)/CC1 (centres unmarked) | -2.11 |
| CCN1CCN(c2cc(C)c3cc(NC(=S)N4CCN(c5ccc(F)cc5)CC4)ccc3n2)CC1 | 9.88 |
| Cc1ccc(C(=O)c2oc3ccc(Cl)cc3c2NC(=O)CN2CCN(C)CC2)cc1 | -6.94 |
| Cc1ccc(S(=O)(=O)N2CCN(C(=O)CN3CCCSc4ccccc43)CC2)cc1 | 3.85 |
| Nc1nc(Sc2ccc(C(F)(F)F)cn2)n[nH]1 | 10.7 |
| C/C=C/c1ccc(OCC(=O)Nc2cc(C(F)(F)F)ccc2N2CCOCC2)c(OC)c1 | 15.3 |
| COc1cc(C(=O)NNC(=O)CCOc2cccc(Br)c2)cc(OC)c1OC | -4.79 |
| O=C(CCNS(=O)(=O)c1cccc2nsnc12)N1CC(=O)N(CCc2ccccc2)C(=O)C1 | -16.3 |
| CC1(C)C2CCC1(CS(=O)(=O)NCc1ccc(C(=O)O)cc1)C(=O)C2 (centres unmarked) | 15.4 |
